PubChem BioAssay AID463173 (ICCB-Longwood Screening Facility, Harvard Medical School, 2010)
Screen size: about 52,000 compounds; about 1,700 (3.3%) were called active. No stated cut-off is given here; in the data, active means survival mostly below about 52% (no sharp cut-off); inactive means mostly above about 56%. The list shows a part of the results.

tested on: Wild type; experiment: growth inhibition of S. aureus wild type versus tarO mutant, primary screen, teichoic acid synthesis inhibitors, RN4220, OD600 (AID 463173); details: S. aureus RN4220 wild type/DeltatarO growth, OD600, 18 h, stronger effect = lower value, screened at 18.75 µg/mL (by protocol)

Row | Compound | survival
1 | CCOc1ccccc1NS(=O)(=O)c1cc(-c2cnc(C3CC3)o2)ccc1C | inactive: 135%
2 | CCc1ccccc1NC(=O)NC(CC)Cn1nnc2ccccc2c1=O (stereo not drawn) | inactive: 93%
3 | CCCn1nnnc1SCC(=O)N1CCCC1 | inactive: 97%
4 | Cc1cc2n(n1)CCC(=O)N2Cc1ccc(C(=O)Nc2cccc(C(F)(F)F)c2)cc1 | inactive: 75%
5 | Cc1ccc(C)c(NC(=O)CSc2nc(=O)n(Cc3ccncc3)c3c2CCC3)c1 | inactive: 102%
6 | CC(=O)N1c2ccc(S(=O)(=O)NCCC(=O)N(C)Cc3ccccc3)cc2CC1C (stereo not drawn) | inactive: 86%
7 | COC(=O)c1cc2sc(C)cc2n1Cc1nc(-c2ccc(C)cc2)oc1C | inactive: 114%
8 | O=C(NCCc1ccc(Cl)cc1)C(=O)NCC(c1cccs1)S(=O)(=O)c1ccccc1 (stereo not drawn) | inactive: 73%
9 | O=C(CSc1nnc(-c2ccccc2O)o1)Oc1ccc(OCc2ccccc2)cc1 | inactive: 106%
10 | Cc1ccc(Nc2c(-c3ccc(C)cc3)nc3c(C)cccn23)cc1 | active: -1%
11 | CC(C)c1ccc(Nc2c(-c3ccc(N(C)C)cc3)nc3cnccn23)cc1 | inactive: 49%
12 | COc1ccc(-c2noc(CSc3nc4ccccc4[nH]3)n2)cc1 | inactive: 55%
13 | CCc1cccc(C)c1NC(=O)CCS(=O)(=O)c1ccc2c(c1)oc(=O)n2C | inactive: 82%
14 | COc1cccc(CN(C(=O)c2oc3ccccc3c2C)C2CCS(=O)(=O)C2)c1 (stereo not drawn) | inactive: 82%
15 | O=C(Cc1ccc(Cl)cc1)Nc1ccc2oc(-c3ccccc3F)nc2c1 | inactive: 153%
16 | CNC(=O)c1c(NC(=O)Cc2coc3ccc(OC)cc23)sc2c1CCCC2 | inactive: 87%
17 | CC(=O)Nc1sc2c(c1C(N)=O)CCCC2 | inactive: 101%
18 | O=C(COc1ccccc1)Nc1ccc2nc(SCC(=O)N3CCCC3)sc2c1 | inactive: 77%
19 | COc1ccc(C2CC(=O)Oc3c2c(=O)n(C)c2ccccc32)c(OC)c1OC (stereo not drawn) | inactive: 64%
20 | O=c1nc(N(c2ccccc2)c2ccccc2)[nH]c(=O)[nH]1 | inactive: 109%

Row | Compound | survival
21 | CCOc1ccc(NC(=O)CS(=O)(=O)Cc2nc(-c3ccc(C)cc3)oc2C)cc1 | inactive: 91%
22 | Fc1ccc(N2CCN(c3ncnc4c3nc3n4CCCC3)CC2)cc1 | inactive: 126%
23 | COc1ccc(OC)c2sc(N(CCCN(C)C)C(=O)c3ccco3)nc12 | inactive: 134%
24 | Cc1ccccc1CNC(=O)CCSCc1cnn(-c2ccccc2)c1-n1cccc1 | inactive: 79%
25 | COc1ccc(C2c3c(-c4ccc(F)cc4)n[nH]c3C(=O)N2c2ccccc2)cc1OC (stereo not drawn) | inactive: 134%
26 | CCOC(=O)c1ccc(NC(=O)c2ccc(-c3cccc(Cl)c3C)o2)cc1 | inactive: 59%
27 | CCOc1ccc(CCNC(=O)c2cc3c(-c4ccccc4F)nn(C)c3s2)cc1OCC | inactive: 73%
28 | O=c1c2oc3ccccc3c2ncn1Cc1ccc(Br)cc1 | inactive: 111%
29 | COc1ccc(C2c3c(oc4ccccc4c3=O)C(=O)N2c2nc(C)c(C)s2)cc1 (stereo not drawn) | inactive: 71%
30 | CCSc1nnc(CNc2ccc(F)cc2)n1CC1CCCO1 (stereo not drawn) | inactive: 96%
31 | CCOc1ccc(C(NC(=O)c2cc(OC)c(OC)c(OC)c2)c2cc(Cl)c3cccnc3c2O)cc1 (stereo not drawn) | inactive: 129%
32 | Cc1ccc2nc(CN3CCN(S(=O)(=O)c4ccccc4)CC3)oc2c1 | inactive: 73%
33 | Cc1nc2nc(C)c(CCC(=O)NCCc3ccccc3)c(C)n2n1 | inactive: 70%
34 | O=C(Cn1cc(S(=O)(=O)Cc2ccccc2Cl)c2ccccc21)Nc1cccc(C(F)(F)F)c1 | inactive: 71%
35 | Cc1ccc(S(=O)(=O)N(CC(=O)Nc2c(C)cccc2C)c2cccc(Cl)c2)cc1 | inactive: 72%
36 | COC(=O)c1cc(C)nc2c1c(=O)nc(SCc1c(C)cc(C)cc1C)n2C1CC1 | inactive: 127%
37 | CCc1ccc(NC(=O)CSc2nc3ccccc3c(=O)n2CCC(=O)NC2CCCCC2)cc1 | inactive: 76%
38 | CCC(Sc1nc2cc3c(cc2c(=O)n1CCCC(=O)NCc1ccc2c(c1)OCO2)OCO3)C(=O)NCCCOC (stereo not drawn) | inactive: 64%
39 | CCC(=O)N1c2ccc(S(=O)(=O)N3CCCCCC3)cc2CC1C (stereo not drawn) | inactive: 68%
40 | COC(=O)c1cc2oc3ccccc3c2n1CC(=O)Nc1ccc(N(C)C)cc1 | inactive: 70%

Row | Compound | survival
41 | Cc1ccc(NC(=O)COc2ccc(-c3nn(C)c(=O)c4ccccc34)cc2)c(C)c1 | inactive: 92%
42 | Nc1c(-c2nc(-c3ccccc3Cl)no2)nnn1-c1ccccc1F | inactive: 91%
43 | COc1ccc(NC(=O)C(NS(=O)(=O)c2cccc3nsnc23)c2ccccc2)cc1 (stereo not drawn) | inactive: 89%
44 | CCOc1cc(-c2nnc(SCC(=O)NCCCOC)nc2-c2ccc(OC)c(OCC)c2)ccc1OC | inactive: 75%
45 | Cn1cc(S(=O)(=O)N2CCCCC2)cc1C(=O)NCc1ccc(Cl)cc1 | inactive: 88%
46 | CCC(=O)Nc1nnc(S(=O)(=O)N2CCCCCC2)s1 | inactive: 84%
47 | CCCCSc1nnc2c(n1)OC(c1ccc(C)s1)Nc1ccccc1-2 (stereo not drawn) | inactive: 56%
48 | CCC(CC)c1nn2cc(-c3ccccc3)nc2s1 | inactive: 100%
49 | Cc1ccc(N2CCN(S(=O)(=O)c3cc(Br)cc4c3N(C(=O)C3CC3)CC4)CC2C)cc1 (stereo not drawn) | inactive: 68%
50 | CCCN(C(=O)c1cn(CC(C)C)c(=O)c2cc(OC)c(OC)cc12)c1cccc(C)c1 | inactive: 138%
51 | COc1ccc(-c2cn3c(n2)sc2cc(C(=O)N4CCCCC4)ccc23)cc1 | inactive: 79%
52 | Cc1cc(C)c2[nH]c(=O)c(CN(CCN3CCOCC3)C(=S)NCC3CCCO3)cc2c1 (stereo not drawn) | inactive: 115%
53 | CCS(=O)(=O)N1CC(=O)N(c2ccc(C)c(C)c2)C(C)(C(=O)NC2CCCCCC2)C1 (stereo not drawn) | inactive: 71%
54 | COc1ccc(N2CC(NC(=O)Cc3cccs3)CC2=O)cc1OC (stereo not drawn) | inactive: 67%
55 | Cc1cc(S(=O)(=O)Nc2ccc3[nH]c(=O)sc3c2)ccc1F | inactive: 73%
56 | CCCCOC(=O)c1ccc(NC(=O)/C(C#N)=C/c2ccc(C)o2)cc1 | inactive: 82%
57 | CCc1cc2c(NCC3CCCO3)ncnc2s1 (stereo not drawn) | inactive: 107%
58 | CCCCNS(=O)(=O)c1ccc2nc(-c3cccnc3)cc(C(=O)NCCCOCC)c2c1 | inactive: 71%
